# Results published in PubChem BioAssay AID686978 (National Center for Advancing Translational Sciences (NCATS), 2013).
# “And” between values parts separate entries of the source, which are not always exact repeats. Equal values may be shown once. Among all 420,000 compounds or so, about 64,000 (15%) were called active. The shares of active, inactive and inconclusive entries below differ from those in the screen. Calls follow the shape of the dose curve; as a rule, active = well fitted inhibition curve with a large enough effect; inconclusive = small, poorly fitted or top-dose-only effect; inactive = flat fitted curve, though single readings scatter. Potencies of inconclusive entries are doubtful fits and often do not repeat.
# Assay: qHTS for Inhibitors of human tyrosyl-DNA phosphodiesterase 1 (TDP1): qHTS in cells in absence of CPT; also: nearly all actives have a fitted effect of over 55% in size
# Settings: DT40 Tdp1-/- hTDP1 cells, no CPT, ATP luminescence, 48 h; activity change, negative = growth inhibition: at 46.2 µM (top of the series)
# In short: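 Chicken DT40 Tdp1-/- cells stably complemented with human TDP1 were seeded at 400 cells/well with DMSO in place of 20 nM camptothecin. After compound pinning, cells grew at least 48 hr at 37 °C; viability read by CellTiter-Glo luminescence.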
# % is scaled to controls: 0 for no effect and ±100 for the full control effect; potency is read from the fitted curve at half-maximal effect; tags tell the direction and shape of the fitted curve.
Structure (SMILES),"activity change, negative = growth inhibition",Potency
O=C(c1cccc(Cl)c1)N1CCn2c1nc1ccccc12,inactive: -0.0771%,
COc1ccc(OC)c(NC(=O)Cc2coc3ccc(C)cc23)c1,,"inconclusive: 20.6 µM [inhibitor, single point]"
CCCCCCC1CC(CCc2nc(=S)[nH][nH]2)C(=O)O1 (stereo not drawn),,"inconclusive: 8.2 µM [inhibitor, partial curve]"
c1ccc(-c2nc(-c3ccccn3)no2)cc1,,"inconclusive: 16.4 µM [inhibitor, partial curve]"
O=C(NCc1ccco1)Nc1ccc(OC(F)(F)F)cc1,,"inconclusive: 23.1 µM [inhibitor, single point]"
O=S(=O)(c1cccc(Cl)c1)N1CCN(c2nc(-c3cccs3)nc3ccccc23)CC1,,"inactive and inconclusive: 20 µM [inhibitor, single point]"
COc1ccccc1N1CCN(C(=O)c2cc(S(=O)(=O)N3CCCCC3)ccc2C)CC1,,"inconclusive: 29.1 µM [inhibitor, single point]"
CCCCOc1ccc(CSC2=NCCN2)cc1[N+](=O)[O-],,active: 20.6 µM
O=C(NCCCN1CCN(c2ccc(F)cc2)CC1)c1ccc2nc(CCc3ccccc3)oc2c1,,"inconclusive: 16.4 µM [inhibitor, single point]"
Cc1cccc(Cc2nnc(CCC(=O)N(C)CCc3ccccc3)o2)c1,,"inconclusive: 14.6 µM [inhibitor, single point]"
Cc1ccc(OC(=O)c2cc3ccccc3o2)cc1,inactive: -2.8%,
CC1=NN(c2ccccc2)C(=O)/C1=C\c1ccc(Oc2ccc([N+](=O)[O-])cc2[N+](=O)[O-])cc1,,"inconclusive: 18.4 µM [inhibitor, single point]"
CCOc1cc(/C=N/NC(=O)NN(C)c2ncc(C(F)(F)F)cc2Cl)ccc1O,,"inconclusive: 29.1 µM [inhibitor, single point]"
CC(C)c1ccc(NC(=O)C(Cc2ccccc2)NS(=O)(=O)c2ccc3c(c2)oc(=O)n3C)cc1 (stereo not drawn),,"inconclusive: 29.1 µM [inhibitor, single point]"
COc1ccc(C)cc1S(=O)(=O)N1c2ccccc2CC1C (stereo not drawn),,"inconclusive: 25.9 µM [inhibitor, partial curve]"
O=S1(=O)N[C@@H](Cc2ccccc2)COc2cc(Br)ccc21,inactive: -15.9%,
CN(C)CCNC(=O)Cn1nc(N2CCN(c3ccccc3)CC2)ccc1=O,inactive: -14.1%,
O=C(COc1ccccc1Cl)N1CCN(C(=O)c2ccco2)CC1,inactive: -8.5%,
O=C(NCc1ccccc1)C(c1ccccc1)N(C(=O)c1csnn1)c1ccccc1 (stereo not drawn),,active: 18.4 µM
Cc1cccn2c(=O)c(C(=O)NC3CC(C)CC(C)(C)C3)c(O)nc12 (stereo not drawn),,active: 7.31 µM
CCCCc1nc2cc(C(=O)NCCc3cnn(C)c3)ccc2o1,inactive: -28.5%,
Cc1ccc(C)c(S(=O)(=O)c2nnn3c2nc(N2CCCCC2)c2sccc23)c1,,"inconclusive: 18.4 µM [inhibitor, single point]"
O=C(NC(=O)c1ccccc1N1CCCCC1)Nc1ccc(Br)cc1,inactive: -2.29%,
COc1cc(/C=C2\C(=O)ON=C2c2ccc(Cl)cc2)ccc1O,,active: 23.1 µM

Structure (SMILES),"activity change, negative = growth inhibition",Potency
COc1ccc(C(C)(O)c2nc(-c3ccccc3C)cs2)cc1 (stereo not drawn),,active: 5.8 µM
O=C(CNC(=O)N1CC(=O)Nc2ccccc21)Nc1ccc(Cl)cc1Cl,inactive: -10.3%,
CC1Cc2cc(C3(O)C(=O)c4ccccc4C3=O)ccc2N1 (stereo not drawn),inactive: 1.22%,
Cc1ccc(CNC(=O)c2ccc(Cn3cc(-c4ccc(C)cc4)nc3-c3ccncc3)cc2)cc1,,"inconclusive: 16.4 µM [inhibitor, single point]"
COc1ccc(Nc2nc(OC)nc(OC)n2)cc1,inactive: -4.97%,
CC(=O)Nc1nonc1-c1nnc(SCc2ccccc2Cl)n1C,,"inconclusive: 29.1 µM [inhibitor, single point]"
COc1ccc(OC)c(NC(=O)Cn2cc(C(=O)c3ccc(Cl)cc3)c(=O)c3cc(OC)ccc32)c1,,"inconclusive: 16.4 µM [inhibitor, single point]"
NC(=O)CC(NC(=O)Cc1ccc(Br)cc1)c1ccc(NC2CCCCCCC2)c([N+](=O)[O-])c1 (stereo not drawn),,"inconclusive: 29.1 µM [inhibitor, single point]"
FC(F)(F)c1ccccc1Cc1c(-c2cccc(Cl)c2)nc2c3ccccc3ccn12,,active: 20.6 µM
Cc1cc(C(=O)N/N=C/c2ccncc2)c(C)o1,inactive: -1.91%,
CCn1cc(/C=C(\NC(=O)c2cc(OC)c(OC)c(OC)c2)C(=O)N2CCN(C)CC2)c2ccccc21,inactive: 1.95%,
O=C(/C=C/c1ccc2ccccc2n1)N1CCN(S(=O)(=O)c2ccc(F)cc2)CC1,,"inconclusive: 18.4 µM [inhibitor, single point]"
CC(NC(=O)c1ccccc1F)C1CC1 (stereo not drawn),inactive: -24.6%,
COc1cc(/C=C2\C=CC(=O)O2)cc(OC)c1,inactive: -22%,
Cc1cccc(-c2c3c(=O)n(C)c(=O)n(C)c3c3cccnn23)c1,,"inconclusive: 20.6 µM [inhibitor, single point]"
NC(=O)CC(NC(=O)Cc1ccc(Br)cc1)c1ccc(NCc2ccc(F)c(F)c2)c([N+](=O)[O-])c1 (stereo not drawn),,"inconclusive: 18.4 µM [inhibitor, single point]"
OC(c1ccc2ccccc2c1)c1ncc(-c2ccc(C(F)(F)F)cc2)[nH]1 (stereo not drawn),,"inconclusive: 29.1 µM [inhibitor, single point]"
O=C(NCc1ccc2c(c1)OCO2)c1c(-c2ccsc2)sc2ccccc12,,active: 14.6 µM
Cc1ccc(CN2CCN(/N=C/c3cc(Br)cc(Br)c3O)CC2)c(C)c1,inactive: -18.2%,
Cc1ccc(-c2cc(C(=O)Nc3cccnc3)c3ccccc3n2)o1,,"inconclusive: 29.1 µM [inhibitor, single point]"
O=C(O)[C@H](Cc1ccccc1)NC(=O)N1CCN(c2ccc(F)cc2)CC1,inactive: -7.05%,
COc1ccc2c(C)cc3nnnn3c2c1,inactive: -26.4%,
CCCCn1c(N)c(N(CC(C)C)C(=O)c2ccc(N(C)S(=O)(=O)c3ccc(C)cc3)cc2)c(=O)[nH]c1=O,inactive: -10.3%,
CCSc1nnc(NC(=O)c2cc(C)nc3ccccc23)s1,inactive: -14.9%,
